31 molecules from article PMC9911399, “Two distinct binding modes provide the RNA-binding protein RbFox with extraordinary sequence specificity” can be followed below.

T1: RBFOX1 RRM (Homo sapiens, UniProt Q9NWB1 109-208)
T1 sequence: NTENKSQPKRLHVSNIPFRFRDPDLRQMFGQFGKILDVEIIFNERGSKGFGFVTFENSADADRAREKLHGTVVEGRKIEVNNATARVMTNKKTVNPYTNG

B1: GAUGAAC (DNA:RNA)
RNA: GGGAGACCGGAAUUCAGAUUGUCCGAUGAACUUAAAUCCCGUCGUAGCCACCA
DNA 1: CAATCTGAATTCCGGTCTCCC
DNA 2: TGGTGGCTACGACGGGATT
B2: AACGAUC (DNA:RNA)
RNA: B1 RNA with G25A, U27C, A30U
DNA 1: CAATCTGAATTCCGGTCTCCC
DNA 2: TGGTGGCTACGACGGGATT
B3: AACUUAU (DNA:RNA)
RNA: B1 RNA with G25A, U27C, G28U, A29U, C31U
DNA 1: CAATCTGAATTCCGGTCTCCC
DNA 2: TGGTGGCTACGACGGGATT
B4: UGCCAGC (DNA:RNA)
RNA: B1 RNA with G25U, A26G, U27C, G28C, A30G
DNA 1: CAATCTGAATTCCGGTCTCCC
DNA 2: TGGTGGCTACGACGGGATT
B5: AAAGCCU (DNA:RNA)
RNA: B1 RNA with G25A, U27A, A29C, A30C, C31U
DNA 1: CAATCTGAATTCCGGTCTCCC
DNA 2: TGGTGGCTACGACGGGATT
B6: GGCAUGC (DNA:RNA)
RNA: B1 RNA with A26G, U27C, G28A, A29U, A30G
DNA 1: CAATCTGAATTCCGGTCTCCC
DNA 2: TGGTGGCTACGACGGGATT
B7: ACGAAAA (DNA:RNA)
RNA: B1 RNA with G25A, A26C, U27G, G28A, C31A
DNA 1: CAATCTGAATTCCGGTCTCCC
DNA 2: TGGTGGCTACGACGGGATT
B8: UAGAGUG (DNA:RNA)
RNA: B1 RNA with G25U, U27G, G28A, A29G, A30U, C31G
DNA 1: CAATCTGAATTCCGGTCTCCC
DNA 2: TGGTGGCTACGACGGGATT
B9: UAGAUGU (DNA:RNA)
RNA: B1 RNA with G25U, U27G, G28A, A29U, A30G, C31U
DNA 1: CAATCTGAATTCCGGTCTCCC
DNA 2: TGGTGGCTACGACGGGATT
B10: UUUUGCC (DNA:RNA)
RNA: B1 RNA with G25U, A26U, G28U, A29G, A30C
DNA 1: CAATCTGAATTCCGGTCTCCC
DNA 2: TGGTGGCTACGACGGGATT
B11: UAAAGCG (DNA:RNA)
RNA: B1 RNA with G25U, U27A, G28A, A29G, A30C, C31G
DNA 1: CAATCTGAATTCCGGTCTCCC
DNA 2: TGGTGGCTACGACGGGATT
B12: GAACACU (DNA:RNA)
RNA: B1 RNA with U27A, G28C, A30C, C31U
DNA 1: CAATCTGAATTCCGGTCTCCC
DNA 2: TGGTGGCTACGACGGGATT
B13: CCUCUGG (DNA:RNA)
RNA: B1 RNA with G25C, A26C, G28C, A29U, A30G, C31G
DNA 1: CAATCTGAATTCCGGTCTCCC
DNA 2: TGGTGGCTACGACGGGATT
B14: UUGCCGC (DNA:RNA)
RNA: B1 RNA with G25U, A26U, U27G, G28C, A29C, A30G
DNA 1: CAATCTGAATTCCGGTCTCCC
DNA 2: TGGTGGCTACGACGGGATT
B15: GGUGACA (DNA:RNA)
RNA: B1 RNA with A26G, A30C, C31A
DNA 1: CAATCTGAATTCCGGTCTCCC
DNA 2: TGGTGGCTACGACGGGATT
B16: GCACACC (DNA:RNA)
RNA: B1 RNA with A26C, U27A, G28C, A30C
DNA 1: CAATCTGAATTCCGGTCTCCC
DNA 2: TGGTGGCTACGACGGGATT
B17: AAUUGUU (DNA:RNA)
RNA: B1 RNA with G25A, G28U, A29G, A30U, C31U
DNA 1: CAATCTGAATTCCGGTCTCCC
DNA 2: TGGTGGCTACGACGGGATT
B18: AUAUGGA (DNA:RNA)
RNA: GGGAGACCGGAAUUCAGAUUGUCCAUAUGGAUUAAAUCCCGUCGUAGCCACCA
DNA 1: CAATCTGAATTCCGGTCTCCC
DNA 2: TGGTGGCTACGACGGGATT
B19: CGUCAGA (DNA:RNA)
RNA: B18 RNA with A25C, U26G, A27U, U28C, G29A
DNA 1: CAATCTGAATTCCGGTCTCCC
DNA 2: TGGTGGCTACGACGGGATT
B20: CAUGCCA (DNA:RNA)
RNA: B1 RNA with G25C, A29C, A30C, C31A
DNA 1: CAATCTGAATTCCGGTCTCCC
DNA 2: TGGTGGCTACGACGGGATT
B21: CUACGCU (DNA:RNA)
RNA: B18 RNA with A25C, U28C, G30C, A31U
DNA 1: CAATCTGAATTCCGGTCTCCC
DNA 2: TGGTGGCTACGACGGGATT
B22: CGCCGCC (DNA:RNA)
RNA: B18 RNA with A25C, U26G, A27C, U28C, G30C, A31C
DNA 1: CAATCTGAATTCCGGTCTCCC
DNA 2: TGGTGGCTACGACGGGATT
B23: AGAAACU (DNA:RNA)
RNA: B18 RNA with U26G, U28A, G29A, G30C, A31U
DNA 1: CAATCTGAATTCCGGTCTCCC
DNA 2: TGGTGGCTACGACGGGATT
B24: GCGUUCG (DNA:RNA)
RNA: B18 RNA with A25G, U26C, A27G, G29U, G30C, A31G
DNA 1: CAATCTGAATTCCGGTCTCCC
DNA 2: TGGTGGCTACGACGGGATT
B25: GUAGGAG (DNA:RNA)
RNA: B18 RNA with A25G, U28G, G30A, A31G
DNA 1: CAATCTGAATTCCGGTCTCCC
DNA 2: TGGTGGCTACGACGGGATT
B26: AAUAUCU (DNA:RNA)
RNA: B1 RNA with G25A, G28A, A29U, A30C, C31U
DNA 1: CAATCTGAATTCCGGTCTCCC
DNA 2: TGGTGGCTACGACGGGATT
B27: GAGCCCC (DNA:RNA)
RNA: B1 RNA with U27G, G28C, A29C, A30C
DNA 1: CAATCTGAATTCCGGTCTCCC
DNA 2: TGGTGGCTACGACGGGATT
B28: CUUACAG (DNA:RNA)
RNA: B1 RNA with G25C, A26U, G28A, A29C, C31G
DNA 1: CAATCTGAATTCCGGTCTCCC
DNA 2: TGGTGGCTACGACGGGATT
B29: UAAGGCA (DNA:RNA)
RNA: B18 RNA with A25U, U26A, U28G, G30C
DNA 1: CAATCTGAATTCCGGTCTCCC
DNA 2: TGGTGGCTACGACGGGATT
B30: CUAUCUU (DNA:RNA)
RNA: B18 RNA with A25C, G29C, G30U, A31U
DNA 1: CAATCTGAATTCCGGTCTCCC
DNA 2: TGGTGGCTACGACGGGATT
B31: CCUAUGC (DNA:RNA)
RNA: B1 RNA with G25C, A26C, G28A, A29U, A30G
DNA 1: CAATCTGAATTCCGGTCTCCC
DNA 2: TGGTGGCTACGACGGGATT

Changes are numbered by the printed parent chain; changes in the protein carry UniProt numbers. The list shows a part of the results.

This assay deals with T1, RBFOX1 RRM. The assay is described as follows: EMSA; HiTS-Eq, 1 nM pool, 10 min; buffer printed only for the single-RNA assays: 10 mM Tris pH 7.5, 150 mM NaCl, 3.4 mM EDTA, 0.001% NP-40, 30 C. The following applies: tags: His6 N-terminal (pET28a); label: 5' 32P. The method, boiled down: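 Purified RbFox RRM (wild type or mutant) was equilibrated for 10 min in 50 µL with 1 nM of a 5′-radiolabelled pool of RNA with 7 randomized nucleotides, its flanks annealed to DNA oligonucleotides, across increasing protein concentrations. Free RNA was separated by 8% native PAGE, excised, reverse-transcribed, PCR-barcoded and sequenced on an Illumina HiSeq 2500. Relative association constants came from read-count changes of each variant against the control reaction, normalised to the cognate motif.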
Background: A gel shift assay detects complexes by their altered migration in electrophoresis.
With B1, the binding signal was 0.0116 KA relative to UGCAUGU.
Then B2, with 0.0036 KA relative to UGCAUGU; and B3, with 0.00219 KA relative to UGCAUGU; and B4, with 0.0168 KA relative to UGCAUGU.
As for B5, the binding signal was 0.00419 KA relative to UGCAUGU.
Regarding B6, the binding signal was 0.627 KA relative to UGCAUGU.
For B7, the binding signal was 0.000734 KA relative to UGCAUGU.
On to B8, for which the binding signal was 0.0201 KA relative to UGCAUGU.
In the case of B9, the binding signal was 0.0139 KA relative to UGCAUGU.
With B10 the figure was 0.016 KA relative to UGCAUGU.
For the molecule B11, the binding signal was 0.00635 KA relative to UGCAUGU.
For B12, the binding signal was 0.00588 KA relative to UGCAUGU.
As to B13, the binding signal is 0.00948 KA relative to UGCAUGU.
As for B14, the binding signal is 0.0194 KA relative to UGCAUGU.
With B15, the binding signal was 0.00992 KA relative to UGCAUGU.
Consider B16, for which the binding signal is 0.00428 KA relative to UGCAUGU.
B17: the binding signal was 0.0119 KA relative to UGCAUGU.
As to B18, the binding signal was 0.000702 KA relative to UGCAUGU.
For B19, the binding signal was 0.00954 KA relative to UGCAUGU.
With B20 the figure was 0.00477 KA relative to UGCAUGU; with B21, 0.00553 KA relative to UGCAUGU.
Regarding B22, the binding signal is 0.00919 KA relative to UGCAUGU.
On to B23, for which the binding signal was 0.00376 KA relative to UGCAUGU.
With B24 the figure was 0.0164 KA relative to UGCAUGU.
As to B25, the binding signal is 0.00547 KA relative to UGCAUGU.
In the case of B26, the binding signal is 0.00131 KA relative to UGCAUGU.
As to B27, the binding signal was 0.00177 KA relative to UGCAUGU.
As for B28, the binding signal is 0.00477 KA relative to UGCAUGU.
Take B29: the binding signal was 0.0147 KA relative to UGCAUGU.
In the case of B30, the binding signal is 0.00729 KA relative to UGCAUGU.
B31: the binding signal was 0.00596 KA relative to UGCAUGU.
